Source: patent US20190055527A1 (KYUSHU UNIVERSITY NATIONAL UNIVERSITY, published 2019)

Target: T1, PCNA from Pyrococcus furiosus (Pyrococcus furiosus, UniProt O73947 1-249)
T1 construct: Wild-type PfuPCNA immobilised on a CM5 chip by amine coupling; also called PfuPCNA
T1 sequence (looked up): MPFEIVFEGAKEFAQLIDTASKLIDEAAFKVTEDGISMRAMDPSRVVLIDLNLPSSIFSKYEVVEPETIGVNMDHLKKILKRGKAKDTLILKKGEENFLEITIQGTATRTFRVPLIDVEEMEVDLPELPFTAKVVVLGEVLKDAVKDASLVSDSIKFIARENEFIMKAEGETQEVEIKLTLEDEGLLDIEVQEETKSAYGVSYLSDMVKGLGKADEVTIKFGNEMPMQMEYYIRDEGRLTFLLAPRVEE
Assay: SPR (BIAcore J), PfuPCNA immobilised on CM5 chip; Kd of Taq94 against Kd of Taq81 to Taq85
Experimental: In the surface plasmon resonance (SPR) analysis, BIAcore J (manufactured by BIACORE) was used. A PCNA from Pyrococcus furiosus (J. Bacteriology, 181, 6591-6599, 1999: hereinafter referred to as PfuPCNA) was immobilized on a CM5 sensor chip (manufactured by GE Healthcare) by amine coupling, and the measurement was carried out under the conditions of 25° C., a flow rate of 30 μL/minutes, and a solution E (10 mM Tris-HCl, 50 mM KCl, 1.5 mM MgCl₂, pH 8.3). A sample solution of Taq81 to Taq85 diluted to 10, 20, 40, 80, 160, or 320 nM or a sample solution of Taq94 diluted to 125 nM, 250 nM, 500 nM, 1 μM, or 2 μM was each added for 2 minutes. The sensorgrams obtained were analyzed by BIA evaluation program, and the dissociation constants (Kd) between Taq81 to Taq85 and PfuPCNA and between Taq94 and PfuPCNA were calculated.

B1: Taq94 (Taq-L15-PIP) (enzyme)
chain: MRGMLPLFEPKGRVLLVDGHHLAYRTFHALKGLTTSRGEPVQAVYGFAKSLLKALKEDGDAVIVVFDAKAPSFRHEAYGGYKAGRAPTPEDFPRQLALIKELVDLLGLARLEVPGYEADDVLASLAKKAEKEGYEVRILTADKDLYQLLSDRIHALHPEGYLITPAWLWEKYGLRPDQWADYRALTGDESDNLPGVKGIGEKTARKLLEEWGSLEALLKNLDRLKPAIREKILAHMDDLKLSWDLAKVRTDLPLEVDFAKRREPDRERLRAFLERLEFGSLLHEFGLLESPKALEEAPWPPPEGAFVGFVLSRKEPMWADLLALAAARGGRVHRAPEPYKALRDLKEARGLLAKDLSVLALREGLGLPPGDDPMLLAYLLDPSNTTPEGVARRYGGEWTEEAGERAALSERLFANLWGRLEGEERLLWLYREVERPLSAVLAHMEATGVRLDVAYLRALSLEVAEEIARLEAEVFRLAGHPFNLNSRDQLERVLFDELGLPAIGKTEKTGKRSTSAAVLEALREAHPIVEKILQYRELTKLKSTYIDPLPDLIHPRTGRLHTRFNQTATATGRLSSSDPNLQNIPVRTPLGQRIRRAFIAEEGWLLVALDYSQIELRVLAHLSGDENLIRVFQEGRDIHTETASWMFGVPREAVDPLMRRAAKTINFGVLYGMSAHRLSQELAIPYEEAQAFIERYFQSFPKVRAWIEKTLEEGRRRGYVETLFGRRRYVPDLEARVKSVREAAERMAFNMPVQGTAADLMKLAMVKLFPRLEEMGARMLLQVHDELVLEAPKERAEAVARLAKEVMEGVYPLAVPLEVEVGIGEDWLSAKESGSGSSGSGSGSGSGKQATLFDFLKK
notes: Taq DNA polymerase, 15-residue Ser/Gly linker, PfuRFCL PIP box at the C-terminus; also called DNA polymerase variant Taq94
In the case of B1, the “fold of the dissociation constants of Taq81 to Taq85” value is reported as roughly 10 fold.
